PubChem BioAssay AID504333 (National Center for Advancing Translational Sciences (NCATS), 2011)
About 16,000 (4.4%) of roughly 360,000 compounds were called active. Inconclusive means that the source gave no clear call. Such entries were picked first, then a sample of the others. The call rests on the fitted dose curve; in most records, active means well fitted inhibition curve with a large enough effect; inconclusive means small, poorly fitted or top-dose-only effect; inactive means no such curve, though single readings can be large or run the other way. A potency beside an inconclusive call is a rough fit, not a confirmed value.

molecular target: Bromodomain adjacent to zinc finger domain protein 2B (Homo sapiens) (UniProt Q9UIF8); experiment: qHTS Assay for Inhibitors of BAZ2B; conditions: AlphaScreen BAZ2B-H3K14Ac peptide displacement; activity change, negative = inhibition: at 114 µM (top of the series); further: nearly all actives have a fitted effect of over 60% in size
Outline: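 In this displacement format the biotinylated H3(5-23) peptide acetylated at Lys14 serves as ligand at 50 nM, with BAZ2B at 50 nM in PBS pH 7.4 containing 0.01% Tween-20. Donor and acceptor beads are 10 ug/mL final.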
On the % scale 0 is the no-effect control and ±100 the full control effect; potency means the concentration at half of the fitted maximal effect; tags describe the fitted curve by direction and shape.

UniProt Q9UIF8, sequence (Q9UIF8 whole entry, looked up, the tested form may be a part): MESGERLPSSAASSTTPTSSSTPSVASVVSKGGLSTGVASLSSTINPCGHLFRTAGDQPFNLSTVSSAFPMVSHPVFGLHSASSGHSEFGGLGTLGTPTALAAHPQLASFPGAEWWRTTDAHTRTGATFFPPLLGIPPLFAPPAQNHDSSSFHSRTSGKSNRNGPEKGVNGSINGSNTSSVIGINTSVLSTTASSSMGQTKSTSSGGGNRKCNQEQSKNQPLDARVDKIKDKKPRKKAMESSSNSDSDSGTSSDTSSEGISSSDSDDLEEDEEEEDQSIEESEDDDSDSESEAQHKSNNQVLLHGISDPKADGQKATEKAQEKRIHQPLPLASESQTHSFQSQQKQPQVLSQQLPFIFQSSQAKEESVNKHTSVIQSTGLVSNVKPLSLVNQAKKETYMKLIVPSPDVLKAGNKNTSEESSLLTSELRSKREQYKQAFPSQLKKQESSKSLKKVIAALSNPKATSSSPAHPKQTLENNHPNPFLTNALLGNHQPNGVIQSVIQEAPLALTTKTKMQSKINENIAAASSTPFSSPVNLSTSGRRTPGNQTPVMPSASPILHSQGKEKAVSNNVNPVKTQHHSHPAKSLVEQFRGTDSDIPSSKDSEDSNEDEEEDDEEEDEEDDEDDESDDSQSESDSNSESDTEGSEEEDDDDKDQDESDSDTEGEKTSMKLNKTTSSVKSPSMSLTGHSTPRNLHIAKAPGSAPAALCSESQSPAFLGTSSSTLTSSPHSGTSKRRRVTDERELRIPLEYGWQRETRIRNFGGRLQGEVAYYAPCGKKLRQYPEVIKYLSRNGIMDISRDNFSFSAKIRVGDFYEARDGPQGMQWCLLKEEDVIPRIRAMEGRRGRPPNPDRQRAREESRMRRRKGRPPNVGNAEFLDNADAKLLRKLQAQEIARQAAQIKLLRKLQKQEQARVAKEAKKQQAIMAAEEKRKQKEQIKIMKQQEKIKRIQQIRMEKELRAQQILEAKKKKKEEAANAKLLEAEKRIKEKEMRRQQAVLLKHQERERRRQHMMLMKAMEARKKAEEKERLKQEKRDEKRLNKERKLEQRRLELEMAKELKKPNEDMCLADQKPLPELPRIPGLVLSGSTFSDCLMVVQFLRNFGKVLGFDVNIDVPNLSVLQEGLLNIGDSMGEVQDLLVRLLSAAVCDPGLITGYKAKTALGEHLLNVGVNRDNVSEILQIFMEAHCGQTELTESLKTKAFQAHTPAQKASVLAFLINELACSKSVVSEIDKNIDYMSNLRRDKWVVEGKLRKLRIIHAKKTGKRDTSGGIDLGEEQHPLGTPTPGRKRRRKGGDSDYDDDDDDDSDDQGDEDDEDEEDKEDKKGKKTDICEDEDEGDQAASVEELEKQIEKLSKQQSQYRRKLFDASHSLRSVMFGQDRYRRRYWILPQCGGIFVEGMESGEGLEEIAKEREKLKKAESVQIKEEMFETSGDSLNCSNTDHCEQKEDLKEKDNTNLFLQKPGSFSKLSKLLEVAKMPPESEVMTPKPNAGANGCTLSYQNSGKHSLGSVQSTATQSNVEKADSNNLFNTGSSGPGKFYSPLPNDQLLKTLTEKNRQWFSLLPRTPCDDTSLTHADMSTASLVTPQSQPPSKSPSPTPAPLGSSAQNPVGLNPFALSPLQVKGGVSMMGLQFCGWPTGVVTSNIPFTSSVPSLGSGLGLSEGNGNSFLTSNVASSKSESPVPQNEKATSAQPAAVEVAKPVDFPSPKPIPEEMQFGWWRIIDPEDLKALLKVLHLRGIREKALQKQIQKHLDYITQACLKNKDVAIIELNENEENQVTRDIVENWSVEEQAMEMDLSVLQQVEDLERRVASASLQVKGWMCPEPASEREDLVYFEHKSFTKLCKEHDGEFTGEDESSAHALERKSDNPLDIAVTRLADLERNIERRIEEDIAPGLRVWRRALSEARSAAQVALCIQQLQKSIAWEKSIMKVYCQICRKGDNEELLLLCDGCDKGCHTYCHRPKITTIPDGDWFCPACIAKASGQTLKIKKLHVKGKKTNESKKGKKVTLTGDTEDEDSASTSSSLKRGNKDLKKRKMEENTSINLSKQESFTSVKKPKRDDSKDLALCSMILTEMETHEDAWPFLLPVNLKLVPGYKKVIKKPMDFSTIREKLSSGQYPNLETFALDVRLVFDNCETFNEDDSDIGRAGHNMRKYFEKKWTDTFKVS

SMILES | activity change, negative = inhibition | Potency
CCOC(=O)c1c[nH]c2c(C)ccc(Cl)c2c1=O | inactive: -17.6% | 
Cc1cccc(N2CCN(C(=O)C3COc4ccccc4O3)CC2)c1C (centres undefined) |  | inconclusive: 79.4 µM [inhibitor, single point]
O=C(C(Cc1ccccc1)n1cccc1)N1CCN(Cc2ccccc2)CC1 (centres undefined) |  | active: 50.1 µM
O=C1c2ccccc2C(=O)N1SC1CCCCC1 | inactive: 2.15% | 
CN1C(=O)c2cccc3c(S(=O)(=O)N4CCCC4C(=O)O)ccc1c23 (centres undefined) |  | inconclusive: 89.1 µM [inhibitor, single point]
COC(=O)c1cc2c(cc1N)OCCO2 |  | inconclusive: 56.2 µM [inhibitor, partial curve]
CCCn1c(N2CCN(C(=O)N3CCCCC3)CC2)nc2ccccc21 |  | inconclusive: 89.1 µM [inhibitor, single point]
COc1ccccc1NC(=O)CCC(=O)N(Cc1ccc(OC)c(OC)c1)c1nccs1 |  | inconclusive: 89.1 µM [inhibitor, single point]
N#CCOC(=O)[C@H](Cc1c[nH]c2ccccc12)NS(=O)(=O)c1ccc(Cl)cc1 |  | inconclusive: 70.8 µM [inhibitor, single point]
NC(=O)NC(=O)COC(=O)c1ccc(OC(F)(F)F)cc1 | inactive: -2.85% | 
O=C1c2ccccc2NC(c2cn[nH]c2-c2ccc(Cl)cc2)N1O (centres undefined) | inactive: -34.2% | 
COCCNCCCOc1ccc(C)cc1Br |  | active: 56.2 µM
O=C(COc1ccc2c3c(c(=O)oc2c1)CCC3)N1CCN(c2ccc(F)cc2)CC1 |  | inconclusive: 70.8 µM [inhibitor, single point]
CN1C(=O)/C(=C2\SC(=S)N(C(CCC(=O)O)C(=O)O)C2=O)c2ccccc21 (centres undefined) |  | inconclusive: 89.1 µM [inhibitor, single point]
O=C(O)c1cccc(S(=O)(=O)N2CCN(C(c3ccccc3)c3ccccc3)CC2)c1 |  | inconclusive: 39.8 µM [inhibitor, partial curve]
Cc1ccc(-c2nc3ccccc3c(=O)n2O)cc1 |  | inconclusive: 63.1 µM [inhibitor, partial curve, poor fit]
Cc1c(/C(O)=C2/C(=O)C(=O)N(Cc3cccnc3)C2c2ccccn2)cnn1-c1ccccc1 (centres undefined) |  | active: 50.1 µM
CC(=O)Nc1ccc(S(=O)(=O)NNC(=O)C(=O)NNc2ccccn2)cc1 |  | inconclusive: 89.1 µM [inhibitor, single point]
Cc1ccc(C)c(N(CC(=O)NCc2ccco2)C(=O)CNS(=O)(=O)c2ccc(F)cc2)c1 | inactive: -2.92% | 
Cc1cc(OCCOCCN2CCCC2)ccc1C(C)C |  | inconclusive: 79.4 µM [inhibitor, single point]
O=C1[C@@H]2Cc3c([nH]c4ccccc34)C(c3ccc([N+](=O)[O-])cc3)N2C(=O)CN1C1CC1 (some centres undefined) |  | inconclusive: 50.1 µM [inhibitor, partial curve]
CCCCCCn1c(O)c(/C=C2\C=NN=C2c2ccccc2)sc1=S |  | inconclusive: 10 µM [inhibitor, partial curve]
O=C(Nc1ccc(S(=O)(=O)Nc2nccs2)cc1)c1cc(-c2ccccc2Cl)nc2ccccc12 |  | inconclusive: 25.1 µM [inhibitor, full curve]
O=C(O)c1ccc(/C=N/O)cc1 | inactive: 2.77% | 
Cn1c(=O)[nH]c2cc(-c3noc(-c4cccc(Cl)c4)n3)ccc21 | inactive: 4.42% | 

SMILES | activity change, negative = inhibition | Potency
COc1ccc(/C=C/C(=O)Nc2ccccc2C(=O)O)cc1OC |  | inconclusive: 89.1 µM [inhibitor, partial curve]
CCN1CCN(c2cc(C)c3cc(NC(=S)N4CCN(c5ccccc5)CC4)ccc3n2)CC1 |  | inconclusive: 20 µM [inhibitor, full curve]
Cc1cc(C(=O)N/N=C/c2ccc(-c3ccc([N+](=O)[O-])cc3Cl)o2)n[nH]1 |  | active: 79.4 µM
O=[N+]([O-])c1c(C(Cl)Cl)nn(-c2ccccc2)c1N1CCCC1 |  | active: 12.6 µM
COc1cc(/C=C2\SC(=S)N(NC(=O)c3ccccc3O)C2=O)ccc1O |  | active: 28.2 µM
Cc1ccn2c(=O)nc(SCC(=O)NC3CCCC3)nc2c1 | inactive: -29.1% | 
COc1ccccc1/C=N/Nc1cc(N(C)C)nc(N(C)C)n1 |  | inconclusive: 31.6 µM [inhibitor, full curve]
Cc1cc(N=Nc2ccc(Cl)cc2)cc(CN2CCOCC2)c1O |  | active: 10 µM
N#Cc1ccc(CN2CCN(C(=O)CCNS(=O)(=O)c3ccc(F)c(Cl)c3)CC2)cc1 | inactive: -0.316% | 
CCOC(=O)c1ccc(S(=O)(=O)N2CCN(CC(O)COc3ccc(C#N)cc3)CC2)cc1 (centres undefined) |  | active: 56.2 µM
CC1(C)Cc2c(sc3c2c(=N)n(Cc2ccco2)c(=O)n3Cc2ccc(F)cc2)CO1 |  | inconclusive: 56.2 µM [inhibitor, partial curve]
O=C(NC(=S)NC1CCCCC1)c1ccccc1 |  | inconclusive: 56.2 µM [inhibitor, partial curve, poor fit]
COc1ccc(-c2ccc(/C=C3\C(=O)N(c4ccccc4)N=C3c3ccccc3)o2)c([N+](=O)[O-])c1 |  | active: 8.91 µM
Cc1ccc(NC2CCCN(C(=O)c3ccccc3-c3ncc[nH]3)C2)cc1C (centres undefined) |  | inconclusive: 50.1 µM [inhibitor, partial curve]
FC(F)Oc1ccc(/C=N/c2c(-c3ccc(OC(F)F)cc3)nc3n2CCS3)cc1 |  | inconclusive: 28.2 µM [inhibitor, partial curve]
COCCNC(=O)Cn1cc(C(=S)N2CCCCC2)c2ccccc21 |  | inconclusive: 89.1 µM [inhibitor, single point]
CCOC(=O)c1ccc(NC2SC(=O)N(Cc3cccc(C(=O)O)c3)C2=O)cc1 (centres undefined) | inactive: -4.94% | 
COc1ccc(-c2c3c(=O)n(C)c(=O)n(C)c3cn2-c2cc(OC)ccc2OC)cc1 |  | inconclusive: 44.7 µM [inhibitor, partial curve]
Cc1ccnc(Nc2nc(-c3ccc(O)cc3)cs2)c1 |  | inconclusive: 89.1 µM [inhibitor, single point]
O=C(O)CC/C(=C\c1cc([N+](=O)[O-])ccc1Cl)c1nc2ccccc2s1 | inactive: -7.39% | 
CCN(CC(=O)Nc1ccc(NC(C)=O)cc1)C(=O)c1ccccc1SCc1c(C)noc1C |  | active: 56.2 µM
CCN(c1ccccc1)S(=O)(=O)c1ccc(Cl)c(NC(=O)CN2CCN(C)CC2)c1 | inactive: -22.8% | 
O=C(O)COc1ccc(/C=C/c2ccc3cccc([N+](=O)[O-])c3n2)cc1 |  | active: 56.2 µM
CCn1cc(C(=O)O)c(=O)c2cc(F)c(N3CCN(C(=S)Nc4ccc(OC)cc4)CC3)cc21 |  | inconclusive: 56.2 µM [inhibitor, partial curve]
O=C(COc1ccc(Cl)cc1)Nc1nnc(-c2ccco2)o1 |  | active: 22.4 µM

SMILES | activity change, negative = inhibition | Potency
O=S(=O)(NC1CC1)c1ccc(S(=O)(=O)N(Cc2ccccn2)C2CC2)cc1 | inactive: -25.3% | 
CN(CC(=O)Nc1ccc(F)cc1)C(=O)COC(=O)c1ccc(-c2ccccc2)cc1 | inactive: 14.1% | 
Cc1ccc(NC2CCCN(C(=O)Cc3nonc3C)C2)cc1C (centres undefined) |  | inconclusive: 79.4 µM [inhibitor, single point]
FC(F)(F)c1cccc(Cc2noc(CN3C[C@@H]4CCC[C@H]3C4)n2)c1 | inactive: -2.02% | 
Cc1nc(COc2ccc(C(=O)Nc3ccccc3N3CCOCC3)cc2)cs1 | inactive: -26.2% | 
COC(=O)c1c(NC(=O)CN2CCN(c3cccc(Cl)c3)CC2)sc(C)c1C | inactive: -19.5% | 
OC(c1ccccn1)c1c[nH]c2ccccc12 (centres undefined) |  | inconclusive: 89.1 µM [inhibitor, single point]
COc1ccc(-c2nnc(NC(=O)c3ccco3)s2)cc1 |  | inconclusive: 89.1 µM [inhibitor, single point]
Cc1ccc([N+](=O)[O-])cc1NC(=S)NC(=O)c1cccnc1 | inactive: -4.07% | 
CCc1ccc(NCCC(=O)c2ccc(Cl)cc2)cc1 |  | inconclusive: 89.1 µM [inhibitor, single point]
C/C(=N\NC(=O)c1cccc(O)c1)c1cccc(NC(=O)c2ccc(F)cc2)c1 | inactive: -25.7% | 
N#Cc1ccccc1Sc1ccccc1C(=O)NCC(c1ccco1)N1CCCC1 (centres undefined) |  | active: 50.1 µM
COC(=O)[C@@]1(Cc2ccc(F)cc2)[C@H]2c3cc(C(=O)N4CCCC4)n(CCO)c3C[C@H]2CN1C(=O)c1ccccc1 |  | inconclusive: 50.1 µM [inhibitor, partial curve]
O=[N+]([O-])c1ccc(S(=O)(=O)NCC2COc3ccccc3O2)cc1 (centres undefined) |  | inconclusive: 70.8 µM [inhibitor, single point]
CN(C)c1ccc(C2Nc3ccccc3C(=O)N2CCCN2CCOCC2)cc1 (centres undefined) |  | inconclusive: 89.1 µM [inhibitor, single point]
Cc1cc(OCC(O)CN2CCCC2)ccc1C(C)C (centres undefined) | inactive: 8.73% | 
Cc1nn(Cc2ccccc2Cl)c(C)c1N | inactive: -7.78% | 
Cc1ccc(Cl)cc1NC(=O)C1CC(=O)Nc2ncnn21 (centres undefined) | inactive: -22.3% | 
Cc1cccc(N=Cc2cc3c(cc2[N+](=O)[O-])OCO3)c1 |  | inconclusive: 70.8 µM [inhibitor, single point]
CCOC(=O)N1CCN(C(c2cccnc2)c2ccc3cccnc3c2O)CC1 (centres undefined) |  | active: 15.8 µM
O=C(O)c1cccc(N2C(=O)/C(=C/c3ccc(SCc4ccc(Cl)cc4)o3)SC2=S)c1 |  | active: 31.6 µM
Cc1cc(C(=O)N/N=C2\CC(=O)c3ccccc32)c(C)n1-c1ccc(F)cc1 |  | active: 39.8 µM
CC(=O)C1=C(c2ccc(Cl)cc2)N(C(C)=O)n2c(nnc2C2CCCCC2)S1 | inactive: -11% | 
CC(C)(C)c1ccc(Cn2c(=N)n(CC(O)c3ccco3)c3ccccc32)cc1 (centres undefined) |  | inconclusive: 39.8 µM [inhibitor, partial curve]
